How the values were obtained:
MLKL (full length) = target: T1, MLKL (full length) (Homo sapiens, UniProt Q8NB16); experiment: KINOMEscan binding assay, MLKL; conditions: equilibrium dissociation constant, class symbols
T1 construct: purchased DiscoverX (KINOMEscan service); host or cells: E. coli BL21-derived (T7 phage) or HEK293
T1 sequence (Q8NB16 1-471): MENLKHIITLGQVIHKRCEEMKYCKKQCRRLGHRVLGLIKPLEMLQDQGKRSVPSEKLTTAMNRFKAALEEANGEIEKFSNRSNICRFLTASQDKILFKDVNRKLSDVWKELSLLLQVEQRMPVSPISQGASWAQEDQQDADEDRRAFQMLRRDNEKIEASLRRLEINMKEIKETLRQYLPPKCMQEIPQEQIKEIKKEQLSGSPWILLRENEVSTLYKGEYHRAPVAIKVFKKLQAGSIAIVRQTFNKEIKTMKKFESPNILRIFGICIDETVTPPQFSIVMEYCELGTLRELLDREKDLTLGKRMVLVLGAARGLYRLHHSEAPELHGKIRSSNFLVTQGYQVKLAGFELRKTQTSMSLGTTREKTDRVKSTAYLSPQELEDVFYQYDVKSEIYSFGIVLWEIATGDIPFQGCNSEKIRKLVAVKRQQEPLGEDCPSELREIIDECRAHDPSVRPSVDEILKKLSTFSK
Text: The Hill Slope was set to −1.

[1] = test system: U937 human histiocytic leukemia cell line; experiment: Inhibition of TSQ induced necroptosis, 384 well plate format (CellTitre-Glo); conditions: Homo sapiens, U-937; U937 cells, TSQ cocktail (TNF, Smac mimetic, Q-VD-OPh), CelltiterGlo; read-out: Inhibition of TSQ-induced necroptosis (IC50 cell-based assay)
Procedure: […] ASSAY: Screening compounds for inhibition of TSQ induced necroptosis, 384 well plate format.
Cell Line ID: U937 human histiocytic leukemia cell line.
Cell Concentration (cells/well): Final cell density is 20000 cells per well.
Cell growth medium: HT-RPMI medium+7.4% Fetal Bovine Serum (FBS). Cells are cultured in Corning 150 cm^2 tissue culture flasks with vented caps at 37° C./5% CO2.
Incubation: Plates were incubated at 37° C./5% CO2 in a humidified incubator for 48 hours following addition of compounds and death stimuli (TSQ cocktail).
Compound concentration: 36 μM starting concentration, 1:3 dilution, 10 point
DMSO final concentration (% v/v): 0.3%.
Compounds in TSQ cocktail (T: TNF; S: Smac mimetic; Q: Q-VD-OPh) and their final concentrations:
hTNF-Fc (100 ng/ml)—produced by standard procedures as shown in Bossen et al., J Biol Chem, 2006, 281(20), 13964-13971.
Compound A (500 nM)—Smac mimetic, Tetralogic and SYNthesis med chem
Q-VD-OPh (10 μM)—MP Biomedicals
The cellular assay was carried out according to the following steps: • 1. Each well was prepared by sequential addition of: • a. DMSO (control; columns 1-2 and 23-24) or compound in DMSO—addition was performed using acoustic transfer of nl volumes of stock compound to give final test concentrations of 36, 12, 4, 1.3, 0.44, 0.148, 0.049, 0.016, 0.005 and 0.002 μM. All wells were backfilled with DMSO to a final total volume in the well of 100 nl. • b. Following compound/DMSO addition in step (a), 40 μL of cell suspension (5×10^5 cells/mL) was added to provide a final cell concentration of 20,000 cells per well, and • c. Following cell addition in step (b), 10 μL of 5×TSQ cocktail (except to positive controls; columns 1 and 23) was added to each well. • 2. After 48 hours, plate was removed from the 37° C. incubator and equilibrated to room temperature for 45 minutes. • 3. 15 μL of room temperature CellTitre-Glo2™ (Promega™) was added to each well. • 4. […] Read luminescence readout on a plate reader. […]
Percent viability was calculated for each compound according to equation (2):
[formula] • wherein • RawData is the readout of any cell containing a compound of the invention • TA is the total activity provided by the luminescence readout from DMSO only wells (columns 2 and 24)=100% viability • NSA is the non-specific activity provided by DMSO+TSQ wells (columns 1 and 23)=0% viability […]
Assay involving the TSQ cocktail (T: TNF; S: Smac mimetic; Q: Q-VD-OPh): TSQ treatment ensures that cells specifically undergo necroptotic cell death. […] The compounds' activity (solution in DMSO) tested in this TSQ-induced assay was evaluated by determining the number of viable cells in culture by measuring the amount of ATP present as measured by CelltiterGlo.

U937 cells = experiment: Counter screen: cell viability without the TSQ cocktail (CelltiterGlo); parameters: species or system human; conditions: Homo sapiens, U-937, cell viability by CelltiterGlo, read-out: Off-target effect (IC50 cell-based assay)
Procedure: Counter screen: In parallel, all compounds were tested for their ability to affect cell viability. The same U937 cells were treated with compound in DMSO without the TSQ cocktail. This counter screen enabled evaluation of off-target effects. In this case, cell viability was measured by CelltiterGlo.

RIP1 = target: T2, RIP1 (Homo sapiens, UniProt Q13546); experiment: KINOMEscan binding assay, RIP1; conditions: equilibrium dissociation constant, class symbols
T2 construct: purchased DiscoverX (KINOMEscan service); host or cells: E. coli BL21-derived (T7 phage) or HEK293
T2 sequence (Q13546 1-671): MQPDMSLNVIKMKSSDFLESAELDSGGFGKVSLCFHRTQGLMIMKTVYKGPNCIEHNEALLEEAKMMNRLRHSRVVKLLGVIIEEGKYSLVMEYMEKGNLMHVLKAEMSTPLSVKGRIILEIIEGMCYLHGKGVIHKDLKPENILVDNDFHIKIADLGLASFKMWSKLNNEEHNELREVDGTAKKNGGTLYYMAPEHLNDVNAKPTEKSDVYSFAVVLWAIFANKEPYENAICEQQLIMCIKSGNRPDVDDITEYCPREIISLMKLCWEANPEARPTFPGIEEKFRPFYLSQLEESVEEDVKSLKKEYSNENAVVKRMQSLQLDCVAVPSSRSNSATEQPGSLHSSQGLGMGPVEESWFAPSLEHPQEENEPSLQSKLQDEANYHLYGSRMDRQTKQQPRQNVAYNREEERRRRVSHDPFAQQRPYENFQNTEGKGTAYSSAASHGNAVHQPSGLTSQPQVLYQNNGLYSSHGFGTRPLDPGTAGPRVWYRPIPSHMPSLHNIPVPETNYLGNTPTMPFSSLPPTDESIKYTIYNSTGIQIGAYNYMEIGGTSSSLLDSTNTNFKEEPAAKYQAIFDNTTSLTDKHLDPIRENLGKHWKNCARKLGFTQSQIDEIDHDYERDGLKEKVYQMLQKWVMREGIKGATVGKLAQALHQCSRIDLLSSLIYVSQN

C[C@H](Oc1cc(-c2n[nH]c(Nc3cc(C(C)(C)C)on3)c2C(N)=O)ccc1NS(=O)(=O)C(F)F)c1ccc(F)cc1 [Compound 282, (S)-5-((5-(tert-butyl)isoxazol-3-yl)amino)-3-(4-((difluoromethyl)sulfonamido)-3-(1-(4-fluorophenyl)ethoxy)phenyl)-1H-pyrazole-4-carboxamide]
Kd (MLKL (full length)): < 10 nM
IC50 [1]: < 10 nM
IC50 (U937 cells): 1000 to 30000 nM
Kd (RIP1): > 30000 nM

C[C@H](Oc1cc(-c2n[nH]c(Nc3cc(C(C)(C)F)on3)c2C(N)=O)ccc1NS(=O)(=O)C(F)F)c1ccc(F)cc1 [Compound 297]
Kd (MLKL (full length)): < 10 nM
IC50 [1]: 10 to 1000 nM
IC50 (U937 cells): > 30000 nM
Kd (RIP1): > 30000 nM

C[C@H](Oc1cc(-c2n[nH]c(Nc3cc(C45CC6CC(CC(C6)C4)C5)on3)c2C(N)=O)ccc1NS(=O)(=O)C(F)F)c1ccc(F)cc1 [Compound 304, (S)-5-((5-(adamantan-1-yl)isoxazol-3-yl)amino)-3-(4-((difluoromethyl)sulfonamido)-3-(1-(4-fluorophenyl)ethoxy)phenyl)-1H-pyrazole-4-carboxamide]
Kd (MLKL (full length)): 10 to 1000 nM
IC50 [1]: 10 to 1000 nM
IC50 (U937 cells): 1000 to 30000 nM
Kd (RIP1): > 30000 nM

Cc1nccc(Nc2[nH]nc(-c3ccc(NS(=O)(=O)C(F)F)c(O[C@@H](C)c4ccc(F)cc4)c3)c2C(N)=O)n1 [Compound 309, (S)-3-(4-((difluoromethyl)sulfonamido)-3-(1-(4-fluorophenyl)ethoxy)phenyl)-5-((2-methylpyrimidin-4-yl)amino)-1H-pyrazole-4-carboxamide]
Kd (MLKL (full length)): < 10 nM
IC50 [1]: 10 to 1000 nM
IC50 (U937 cells): > 30000 nM
Kd (RIP1): > 30000 nM

Reference: patent US12583836B2 (Anaxis Pharma Pty Ltd, priority 2020, dated 2026)
